Assay results reported in US4564619A, “Carbostyril derivative” (Otsuka Pharmaceutical Co., Ltd., priority 1982, dated 1986).
The name of at least one read-out is uncertain.

System: coronary artery
Assay: Increasing effect of blood flow in coronary artery, intra-arterial administration, anesthetized dog
Type: in vivo
Conditions: larger adenosin (30 or 100 micrograms) response = 100%

Row | SMILES | Increasing effect of blood flow in coronary artery (10 micrograms) | Increasing effect of blood flow in coronary artery (30 micrograms) | Increasing effect of blood flow in coronary artery (100 micrograms) | Increasing effect of blood flow in coronary artery (300 micrograms) | Increasing effect of blood flow in coronary artery (1000 micrograms)
1 | COC(=O)C1=C(C)NC(C)=C(C(=O)OCCCCOc2ccc3c(c2)CCC(=O)N3)C1c1ccccc1C(=O)OC (stereo not drawn) [Compound 30, 6-{4-[2,6-Dimethyl-5-methoxycarbonyl-4-(2-methoxycarbonyl)-1,4-dihydropyridin-3-carboxy]butoxy}-3,4-dihydrocarbostyril] | 20% | 145% | 175% |  | 
2 | COC(=O)C1=C(C)NC(C)=C(C(=O)OCCN(C(=O)CCCOc2ccc3[nH]c(=O)ccc3c2)C2CCCCC2)C1c1cccc([N+](=O)[O-])c1 (stereo not drawn) [Compound 31, N--{2-[1,4-Dihydro-2,6-dimethyl-5-methoxycarbonyl-4-(3-nitrophenyl)pyridin-3-carboxy]ethyl}-N--cyclohexyl-4-(6-carbostyriloxy)butyramide] |  | 18.8% | 31.2% | 62.5% | 
3 | COC(=O)C1=C(C)NC(C)=C(C(=O)OCCN(C(=O)CCCOc2ccc3c(c2)CCC(=O)N3)C2CCCCC2)C1c1ccccc1[N+](=O)[O-] (stereo not drawn) [Compound 32, N--{2-[1,4-Dihydro-2,6-dimethyl-5-methoxycarbonyl-4-(2-nitrophenyl)pyridin-3-carboxy]ethyl}-N--cyclohexyl-4-(3,4-dihydro-6-carbostyriloxy)-butyramide] |  | 9.2% | 30.8% | 64.6% | 93.8%
4 | COC(=O)C1=C(C)NC(C)=C(C(=O)OCCN(C(=O)CCCOc2cccc3[nH]c(=O)ccc23)C2CCCCC2)C1c1cccc([N+](=O)[O-])c1 (stereo not drawn) [Compound 33, N--{2-[1,4-Dihydro-2,6-dimethyl-5-methoxycarbonyl-4-(3-nitrophenyl)pyridin-3-carboxy]ethyl}-N--cyclohexyl-4-(5-carbostyriloxy)butyramide] |  |  | 10.8% | 43.1% | 83.1%
5 | COC(=O)C1=C(C)NC(C)=C(C(=O)OCCN(C(=O)CCCOc2ccc3[nH]c(=O)ccc3c2)C2CCCCC2)C1c1ccccc1[N+](=O)[O-] (stereo not drawn) [Compound 34, N--{2-[1,4-Dihydro-2,6-dimethyl-5-methoxycarbonyl-4-(2-nitrophenyl)pyridin-3-carboxy]ethyl}-N--cyclohexyl-4-(6-carbostyriloxy)butyramide] |  | 5.7% | 21.4% | 62.9% | 92.9%
6 | COC(=O)C1=C(C)NC(C)=C(C(=O)OCCN(C(=O)CCCOc2ccc3[nH]c(=O)ccc3c2)C2CCCCC2)C1c1ccccc1 (stereo not drawn) [Compound 35, N--[2-(1,4-Dihydro-2,6-dimethyl-5-methoxycarbonyl-4-phenylpyridin-3-carboxy)ethyl]-N--cyclohexyl-4-(6-carbostyriloxy)butyramide] |  | 3.8% | 26.9% | 63.5% | 105.8%
7 | CCN(CCOC(=O)C1=C(C)NC(C)=C(C(=O)OC)C1c1ccccc1)C(=O)CCCOc1ccc2[nH]c(=O)ccc2c1 (stereo not drawn) [Compound 36, N--[2,(1,4-Dihydro-2,6-dimethyl-5-methoxycarbonyl-4-phenylpyridin-3-carboxy)ethyl]-N--ethyl-4-(6-carbostyriloxy)butyramide] |  | 5.3% | 30.7% | 74.7% | 100.0%
8 | COC(=O)C1=C(C)NC(C)=C(C(=O)OCCCOc2cc(=O)[nH]c3ccccc23)C1c1cccc([N+](=O)[O-])c1 (stereo not drawn) [Compound 37, 4-{3-[2,6-Dimethyl-5-methoxycarbonyl-4-(3-nitrophenyl)-1,4-dihydropyridin-3-carboxy]propoxy}carbostyril] |  |  | 6% | 31% | 
9 | COC(=O)C1=C(C)NC(C)=C(C(=O)OCCCOc2ccc3[nH]c(=O)cc(C)c3c2)C1c1cccc([N+](=O)[O-])c1 (stereo not drawn) [Compound 38, 4-Methyl-6-{3-[2,6-dimethyl-5-methoxycarbonyl-4-(3-nitrophenyl)-1,4-dihydropyridin-3-carboxy]propoxy}carbostyril] | 9% | 47% | 188% | 252% | 
10 | COC(=O)C1=C(C)NC(C)=C(C(=O)OCC(O)COc2ccc3c(c2)CCC(=O)N3)C1c1cccc([N+](=O)[O-])c1 (stereo not drawn) [Compound 39, 6-{3-[2,6-Dimethyl-5-methoxycarbonyl-4-(3-nitrophenyl)-1,4-dihydropyridin-3-carboxy]-2-hydroxypropoxy}-3,4-dihydro-carbostyril] |  |  | 3% | 33% | 
11 | COC(=O)C1=C(C)NC(C)=C(C(=O)OCCCCOc2ccc3c(c2)CCC(=O)N3)C1c1ccc(OC)c(OC)c1 (stereo not drawn) [Compound 40, 6-{4-[2,6-Dimethyl-5-methoxycarbonyl-4-(3,4-dimethoxyphenyl)-1,4-dihydropyridin-3-carboxy]butoxy}-3,4-dihydrocarbostyril] | 5% | 29% | 68% | 112% | 
12 | COC(=O)C1=C(C)NC(C)=C(C(=O)OCCCCOc2ccc3c(c2)CCC(=O)N3)C1c1cc(OC)c(OC)c(OC)c1 (stereo not drawn) [Compound 41, 6-{4-[2,6-Dimethyl-5-methoxycarbonyl-4-(3,4,5-trimethoxyphenyl)-1,4-dihydropyridin-3-carboxy]butoxy}-3,4-dihydrocarbostyril] | 6% | 20% | 31% | 109% | 
13 | COC(=O)C1=C(C)NC(C)=C(C(=O)OCCCCOc2ccc3c(c2)CCC(=O)N3)C1c1ccc(Cl)cc1Cl (stereo not drawn) [Compound 42, 6-{4-[2,6-Dimethyl-5-methoxycarbonyl-4-(2,4-dichlorophenyl)-1,4-dihydropyridin-3-carboxy]butoxy}-3,4-dihydrocarbostyril] | 5% | 80% | 120% | 146% | 
